According to PubChem BioAssay AID504332 (National Center for Advancing Translational Sciences (NCATS), 2011):
Values joined by “and” are separate entries in the source; they are usually repeats but may differ in a detail not shown here. Identical values can stand only once. About 31,000 (8.9%) of roughly 350,000 compounds were called active. Inconclusive results, whose numbers are uncertain, are shown with a selection of clear calls. The call rests on the fitted dose curve; in most records, active means well fitted inhibition curve with a large enough effect; inconclusive means small, poorly fitted or top-dose-only effect; inactive means no such curve, though single readings can be large or run the other way. Potencies of inconclusive entries are doubtful fits and often do not repeat.

Biological target: Histone-lysine N-methyltransferase EHMT2 (Homo sapiens) (UniProt Q96KQ7)
Test: qHTS Assay for Inhibitors of Histone Lysine Methyltransferase G9a; further: nearly all actives have a fitted effect of over 75% in size
Settings: G9a H3K9 monomethylation, AlphaScreen, 2 h; activity, negative = inhibition: at 59 µM (top of the series) unless noted
In short: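 Chemiluminescent proximity detection of H3K9 monomethylation, read after 10 min bead incubation in the dark. Reaction: 20 nM G9a, 500 nM biotin-H3K9 peptide, 20 uM SAM cofactor, 2 h, room temperature, following 15 min enzyme-compound preincubation.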
On the % scale 0 is the no-effect control and ±100 the full control effect; potency means the concentration at half of the fitted maximal effect; tags describe the fitted curve by direction and shape.

Sequence of UniProt Q96KQ7 (Q96KQ7 whole entry, looked up): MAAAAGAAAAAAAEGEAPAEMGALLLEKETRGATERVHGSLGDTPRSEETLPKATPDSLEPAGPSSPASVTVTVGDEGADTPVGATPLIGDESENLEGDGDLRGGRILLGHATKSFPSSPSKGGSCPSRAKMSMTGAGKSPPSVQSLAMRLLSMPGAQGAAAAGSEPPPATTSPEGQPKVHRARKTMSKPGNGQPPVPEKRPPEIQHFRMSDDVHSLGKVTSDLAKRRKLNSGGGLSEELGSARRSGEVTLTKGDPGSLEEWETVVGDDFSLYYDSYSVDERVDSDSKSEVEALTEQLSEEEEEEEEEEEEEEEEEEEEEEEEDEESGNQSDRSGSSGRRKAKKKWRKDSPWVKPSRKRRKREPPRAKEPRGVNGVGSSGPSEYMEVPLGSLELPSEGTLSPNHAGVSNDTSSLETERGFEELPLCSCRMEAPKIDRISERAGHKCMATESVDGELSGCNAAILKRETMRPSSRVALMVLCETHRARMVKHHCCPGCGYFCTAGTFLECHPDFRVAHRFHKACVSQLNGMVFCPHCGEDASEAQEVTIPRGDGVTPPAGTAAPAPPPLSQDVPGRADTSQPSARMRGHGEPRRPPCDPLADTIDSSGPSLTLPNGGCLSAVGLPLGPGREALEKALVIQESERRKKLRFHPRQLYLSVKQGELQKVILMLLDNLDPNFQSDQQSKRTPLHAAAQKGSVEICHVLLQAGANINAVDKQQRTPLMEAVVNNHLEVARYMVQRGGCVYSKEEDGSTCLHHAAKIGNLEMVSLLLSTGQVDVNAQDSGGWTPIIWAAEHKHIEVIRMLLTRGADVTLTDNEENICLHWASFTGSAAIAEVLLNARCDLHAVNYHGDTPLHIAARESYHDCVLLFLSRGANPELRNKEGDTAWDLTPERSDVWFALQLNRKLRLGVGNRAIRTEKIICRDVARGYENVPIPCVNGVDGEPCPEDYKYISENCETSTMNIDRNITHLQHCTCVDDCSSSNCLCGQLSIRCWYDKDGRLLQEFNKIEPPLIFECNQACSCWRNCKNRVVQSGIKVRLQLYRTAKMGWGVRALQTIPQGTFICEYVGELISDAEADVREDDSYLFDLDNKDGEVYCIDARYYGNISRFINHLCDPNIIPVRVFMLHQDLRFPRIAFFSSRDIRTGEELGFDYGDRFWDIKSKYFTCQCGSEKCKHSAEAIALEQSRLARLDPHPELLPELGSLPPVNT

Structure (SMILES) | Potency | activity, negative = inhibition
Cn1c(=O)c2c(nc(SCC(=O)Nc3ccccc3F)n2Cc2ccccc2F)n(C)c1=O | inconclusive: 39.8 µM [inhibitor, single point] | –
COc1ccc(N2CCN(C(=O)CN(C)S(=O)(=O)c3cnc[nH]3)CC2)cc1 | inconclusive: 89.1 µM [inhibitor, single point] | –
CC(=O)Nc1ccc(OCC(O)Cn2c3ccccc3c3ccccc32)c(C)c1 (configuration not stated) | inconclusive: 89.1 µM [inhibitor, single point] | –
FC(F)(F)c1nnc2sc(-c3cccs3)nn12 | inconclusive: 44.7 µM [inhibitor, partial curve, poor fit] | –
Cc1ccc(NC(=O)c2ccc3c(c2)NC(=O)c2ccccc2S3)c(Cl)c1 | – | inactive: -1.2%
O=C(CSc1nnc(SCc2cccc3ccccc23)s1)N=Nc1c(O)[nH]c2ccccc12 | inconclusive: 15.8 µM [inhibitor, partial curve, poor fit] | –
CCN(CC(=O)Nc1ccc(NC(C)=O)cc1)C(=O)Cc1ccc(S(=O)(=O)N2CCOCC2)s1 | inconclusive: 50.1 µM [inhibitor, partial curve] | –
Cc1ccc(Cn2ccnc2SCC(=O)NCc2ccccc2)cc1 | – | inactive: 7.54%
CCN(CC)S(=O)(=O)c1ccc(S(=O)(=O)N(Cc2ccccn2)Cc2ccco2)cc1 | inconclusive: 50.1 µM [inhibitor, partial curve] | –
CCOc1ccccc1Nc1sc(C(=O)c2ccccc2)c(N)c1C(=O)Nc1ccc(F)cc1 | inconclusive: 35.5 µM [inhibitor, partial curve, poor fit] | –
O=C(O)C1CC=CCC1C(=O)N1CC=C(c2ccccc2)CC1 (configuration not stated) | inconclusive: 35.5 µM [inhibitor, partial curve] | –
CSc1nc2c(cc1C#N)CCCCC2 | – | inactive: -5.64%
O=C(Nc1cccc2ncccc12)c1cc([N+](=O)[O-])ccc1Cl | inconclusive: 2 µM [inhibitor, full curve] | –
COCCNC(=O)C1CCCN(c2ncccn2)C1 (configuration not stated) | inconclusive: 0.562 µM [inhibitor, partial curve, poor fit] | –
Cn1ncc(-c2ccno2)c1C(=O)O | inconclusive: 44.7 µM [inhibitor, partial curve] | –
CC(C)CCN(C(=S)NC(=O)C1CCCCC1)c1c(N)n(Cc2ccccc2)c(=O)[nH]c1=O | – | inactive: 0.553% [at 102 µM]
CC(C)COc1ccc(C(=O)N2CCCCC2CCN2CCOCC2)cc1 (configuration not stated) | – | inactive: -7.71%
Cc1cc(C(=O)CSc2nc(N)cc(N)n2)c(C)n1-c1cccc(F)c1 | – | inactive: -18%
O=C(c1cccc(Cl)c1)N1CCN(CCCc2ccccc2)CC1 | inconclusive: 89.1 µM [inhibitor, single point] | –
CC12CN3CCN(CC(C3)/C1=N/NC(=O)Nc1ccccc1)C2 | – | inactive: -4.8% [at 102 µM]
O=[N+]([O-])/C=C/c1cn(Cc2ccccc2)c2ccccc12 | inconclusive: 22.4 µM [inhibitor, single point] | –
O=C1N=c2ccccc2=C1c1sc(=S)n(CC2CCCO2)c1O (configuration not stated) | inconclusive: 89.1 µM [inhibitor, single point] | –
Cc1nnc(NC(=O)CSc2nc(C(C)C)nc3sc(C)c(C)c23)s1 | inconclusive: 79.4 µM [inhibitor, partial curve, poor fit] | –

Structure (SMILES) | Potency | activity, negative = inhibition
COc1cc(C2CC(=O)Nc3cc4c(cc32)OCO4)cc(OC)c1O (configuration not stated) | inconclusive: 20 µM [inhibitor, partial curve, poor fit] | –
Cc1c(C)n(Cc2ccc(Cl)cc2)c2ccc(C(=O)N3CCN(c4ccccc4F)CC3)cc12 | inconclusive: 0.794 µM [inhibitor, full curve, poor fit] | –
C(=N\N1CCN(c2ccccn2)CC1)/C1=C(N2CCOCC2)C(=C/c2ccccc2)/CC1 | – | inconclusive: -75.4% [inhibitor]
Nc1nc(SCC(=O)Nc2ccccc2Sc2ccccc2)n[nH]1 | inconclusive: 2.24 µM [inhibitor, partial curve, poor fit] | –
CCN(Cc1ccc2c(c1)OCCO2)C(=O)CN1C(=O)NC2(CCc3ccccc32)C1=O (configuration not stated) | inconclusive: 0.355 µM [inhibitor, full curve, poor fit] | –
O=c1c2ccccc2nc(SCc2cn3ccsc3n2)n1-c1ccccc1F | inconclusive: 7.94 µM [inhibitor, partial curve, poor fit] | –
CNC(=O)c1ccc(-c2sc3nc(N4CCOCC4)c4c(c3c2N)CCCC4)o1 | inconclusive: 89.1 µM [inhibitor, single point] | –
Cc1ccc(S(=O)(=O)Nc2cc(S(=O)(=O)N3CCOCC3)ccc2NCC2CCCO2)cc1 (configuration not stated) | inconclusive: 35.5 µM [inhibitor, single point] | –
Cc1ccc[n+](-c2nc3ccccc3nc2[N-]S(=O)(=O)c2ccccc2)c1 | – | inactive: -29.7% [at 102 µM]
COc1cc(CN(C)CC2CCCN(CCc3ccc(F)cc3)C2)c(Cl)cc1O (configuration not stated) | inconclusive: 89.1 µM [inhibitor, single point] | –
CCC1(CC)NC(=O)N(CC(=O)OCC(=O)c2cc(C)c(C)cc2C)C1=O | – | inactive: -8.44% [at 102 µM]
CCCCCn1c(CN2CC(C)OC(C)C2)nc2c1c(=O)n(C)c(=O)n2C (configuration not stated) | active: 39.8 µM | –
Cc1nn(C)c(Sc2ccccc2N)c1[N+](=O)[O-] | active: 7.94 µM | –
Cc1nn2c(N3CCCC3)c3c(nc2c1-c1ccccc1)CCC3 | – | inconclusive: -88.4% [inhibitor]
Cc1ccc(-n2c3nc(=O)n(C)c(=O)c-3cc3ccccc32)c(C)c1 | – | inactive: 1.33%
O=C(NCCCn1ccnc1)C(=O)NCC(c1ccco1)N1CCN(c2ccccc2)CC1 (configuration not stated) | – | inactive: -6.02% [at 102 µM]
CCOC(=O)c1c(C)n(-c2ccc(C)cc2)c2ccc(OCC(O)CNCCCO)cc12 (configuration not stated) | active: 8.91 µM | –
c1ccc(-c2cn3nc(-c4ccccc4)cnc3n2)cc1 | inconclusive: 7.94 µM [inhibitor, full curve, poor fit] | –
c1ccc(CCn2nnnc2C(c2cccnc2)N2CCN(c3nc4ccccc4s3)CC2)cc1 (configuration not stated) | inconclusive: 14.1 µM [inhibitor, partial curve] | –
Cc1nc2c3ccccc3nc(NNC(=O)CCC(=O)N3CCN(c4ccc(F)cc4)CC3)n2n1 | inconclusive: 6.31 µM [inhibitor, full curve] and inconclusive: 7.94 µM [inhibitor, full curve] | –
CC(C)Cc1ccc(CN2CCCC(NC(=O)CCN3CCCO3)C2)cc1 (configuration not stated) | active: 79.4 µM | –
Cc1ccc(N2C(=O)CC(c3c[nH]c4ccccc34)C2=O)cc1 (configuration not stated) | – | inactive: -5.74% [at 102 µM]
Cc1cc2c(cc1S(=O)(=O)NCc1ccc(F)cc1)OCCN2C | inconclusive: 28.2 µM [inhibitor, partial curve] | –

Structure (SMILES) | Potency | activity, negative = inhibition
CCOC(=O)CNNC(=O)Nc1ccc(Cl)c(Cl)c1 | – | inactive: 26.1% [at 102 µM]
Cc1ccc2c(=O)cc(C(=O)Nc3c(C)cccc3C)oc2c1 | inconclusive: 31.6 µM [inhibitor, single point] | –
Cc1ccc2[nH]c(CNC(=O)C3CCCCC3)cc2c1 | inconclusive: 89.1 µM [inhibitor, single point] | –
O=C(Nc1ccccc1O)c1ccc(NS(=O)(=O)c2cccc3cccnc23)cc1 | inconclusive: 35.5 µM [inhibitor, partial curve] | –
O=C(CN1C(=O)C2CCCCC2C1=O)Nc1ccc(S(=O)(=O)Nc2ncccn2)cc1 (configuration not stated) | inconclusive: 44.7 µM [inhibitor, partial curve, poor fit] | –
COc1ccc(/C=C/c2nc(C#N)c(N3CCCCC3)o2)cc1OC | – | inactive: -27.9%
CCc1c(C)nc2c(Br)cccc2c1SCCC#N | inconclusive: 4.47 µM [inhibitor, single point] | –
COc1cccc2cc(-c3nc4sc5c(c4c(=O)[nH]3)CCC(C(C)(C)C)C5)c(=O)oc12 (configuration not stated) | – | inactive: -18.8%
Cc1cc(C)c(Cn2c(=O)n(CCCC(=O)NCc3ccc4c(c3)OCO4)c(=O)c3sccc32)c(C)c1 | – | inactive: -8.98%
CCn1c(SCc2nc3ccccc3[nH]2)nnc1-c1cccs1 | – | inactive: -30.1% [at 102 µM]
CCCCN(C(=O)c1cccc(-n2cccc2)c1)c1c(N)n(CCCC)c(=O)[nH]c1=O | active: 50.1 µM | –
c1ccc(-c2nc3cnccn3c2Nc2ccc3c(c2)OCCO3)cc1 | inconclusive: 17.8 µM [inhibitor, partial curve, poor fit] | –
CCOC(=O)C1CCCN(c2c(NCCc3ccc(S(N)(=O)=O)cc3)c(=O)c2=O)C1 (configuration not stated) | inconclusive: 89.1 µM [inhibitor, single point] | –
Cc1cc(NC(=O)CSCC(=O)Nc2ccccc2N2CCCCC2)no1 | inconclusive: 89.1 µM [inhibitor, single point] | –
O=C(Nc1ccc(-c2csc(Nc3ccc(Cl)cc3)n2)cc1)c1cccc(C(F)(F)F)c1 | – | inactive: -6.08% [at 12.7 µM]
CCn1c2ccccc2c2cc(NC(=O)COC(=O)c3cccc(S(=O)(=O)NC)c3)ccc21 | inconclusive: 22.4 µM [inhibitor, single point] | –
Fc1ccc(-c2nnc(SCc3ncc(-c4ccccc4)o3)n2CC2CCCO2)cc1 (configuration not stated) | inconclusive: 39.8 µM [inhibitor, partial curve, poor fit] | –
CC(=O)Nc1ccc2[nH]ccc2c1 | inconclusive: 100 µM [inhibitor, partial curve, poor fit] | –
Cc1cccc(/C=N/NC(=O)CNc2cccc3ccccc23)n1 | inconclusive: 35.5 µM [inhibitor, single point] | –
Cc1ccc(-n2ncc(C(=O)NCc3ccco3)c2C2CCN(C(=O)OC(C)(C)C)CC2)cc1 | inconclusive: 28.2 µM [inhibitor, partial curve, poor fit] | –
COC(=O)c1cccnc1NC(=S)NNC(=O)c1ccncc1 | inconclusive: 89.1 µM [inhibitor, single point] | –
